In publication PMC12136788:
The list shows a part of the results.

B1: chr1:45660322:45660423:-|5pUTR|ENSG00000159592|unk|total|mutant (ssRNA)
RNA: GGGAGUUCUACAGUCCGACGAUCUCCCCUUCCCCCCUUCCCCUUUUCCCCUUUCCCCUUUUGGAAACGUGUCAGGAACCAAACCGUUUAAGAUGAGCAGUUGAGGGGACUGAGAGAGUGAUCGACACAGAACCUGGCUUCUUCCAACAGAGGAUUGAGCAUCA
B2: chr3:149369464:149369565:-|3pUTR|ENSG00000169908|msi1_unk|total|mutant (ssRNA)
RNA: GGGAGUUCUACAGUCCGACGAUCAAAUAACAUUCCAAUCACUAUUGUAUAUAUGUGCAUGUAUUUUUUAAAUUAAAGAUGUCCCGUUGCUUUUUAUAAGACCAAGAAGGAGAAAAUCCGACAACCUGGAAAGAUUUUUGUUUUCAACAGAGGAUUGAGCAUCA
B3: chr7:101138466:101138856:+|3pUTR|ENSG00000106366|msi1|FALSE|unique (ssRNA)
RNA: GGGAGUUCUACAGUCCGACGAUCGAGUGGGGGGACAGAGACUCAGAUGAGGACAGAGUGGUUUCCAAUGUGUUCAAUAGAUUUAGGAGCAGAAAUGCAAGGGGCUGCAUGACCUACCAGGACAGAACUUUCCCCAAUUACAGGCAACAGAGGAUUGAGCAUCA
B4: chr1:92387783:92387894:+|3pUTR|ENSG00000122484|unk|FALSE|unique (ssRNA)
RNA: GGGAGUUCUACAGUCCGACGAUCGGGAGCUUAGUGGGCAAGGAGGUAGGGAUAUAAUUUCUCUUCUUGGCUCCACCAGUAAUUAGCUCUGUGGCCCAGUCACCUAAACUUUCUGGACUUCAGUUCAGGUUGUAUGGCAGUAGGCAACAGAGGAUUGAGCAUCA
B5: chr11:61866962:61867357:+|3pUTR|ENSG00000134824|msi1|FALSE|unique (ssRNA)
RNA: GGGAGUUCUACAGUCCGACGAUCAGAUUCAGGGGAAGGGCAGGCACCAACAACUCAGAAUGGGGGCUUUCGGGGAGGGCGCCUAGUCCCCCCAGCUCUAAGCAGCCAGGAGGGACCUGCAUCUAAGCAUCUGGGUUGCCAUGGCAACAGAGGAUUGAGCAUCA
B6: chr19:13098382:13098626:+|3pUTR|ENSG00000008441|msi1|FALSE|unique (ssRNA)
RNA: GGGAGUUCUACAGUCCGACGAUCACGCAGUAUAUACGAGUAUCUCUAUAUAUAGUACUAAUGGAUUUGGUGUGCUUCCCCCUUAGCGUCCCCCUCCCUCUGCUCCUCCUCCUUCAGCCUGGUCUCCCCCUCUUCUCUGCCCUCCAACAGAGGAUUGAGCAUCA
B7: chr22:20142972:20143073:+|CDS|ENSG00000099904|msi1|FALSE|unique (ssRNA)
RNA: GGGAGUUCUACAGUCCGACGAUCGGGGAUCAUGUGGCCCUGCAGCCCCUGCGCUCUGAGGGGGGGCCCCCCACGCCCCACCGUAGCAUUUUUGCCCCCCAUGCACUGCCCAACCGCAACGGCAGCCUGUCCUAUGACAGCCUGCAACAGAGGAUUGAGCAUCA
B8: ENSG00000136451:be:win_3551|3pUTR|ENSG00000136451|bound_else_gene|NA|bound_elsewhere_windowed (ssRNA)
RNA: GGGAGUUCUACAGUCCGACGAUCACUACUGGAAGGACUCGUGUAGGGAAAGCCCAAGAAUGACCUUGCUGAGGCCUGGAUUGGGAGGCACAGUGGCCACAUUUGGAGGAAGUUCACAUUUCCUGGCAUGCAGACCCAAAACUGCAACAGAGGAUUGAGCAUCA
B9: chr2:223959526:223959698:+|CDS|ENSG00000135900|unk|FALSE|unique (ssRNA)
RNA: GGGAGUUCUACAGUCCGACGAUCCUGGGAUUACCAUGCAGAAAUACAAGCUUUUGGACAUCGGUUACAGGAAAACUUUUCCUUAGAUCUUCUCAAAACUGCAUUUGUUAAUAGCUGCUAUAUUAAAAGUGAGGAGGCCAAACGCAACAGAGGAUUGAGCAUCA
B10: ENSG00000126261:stop:overlap|stop_codon|ENSG00000126261|stop_codon|NA|stop_codon (ssRNA)
RNA: GGGAGUUCUACAGUCCGACGAUCAUCUCGUGCUCACCGGUUUCUCCCACAUCGACCUGCCACCAGGGUCUCACUAUUUUGCUUAGGCUGGUCUUGAAGGUCUGGGCUCAAGCGAUUCUCUCACUUUGUCCUCCCAAAGUGUUGCAACAGAGGAUUGAGCAUCA
B11: ENSG00000136451:be:win_1201|CDS|ENSG00000136451|bound_else_gene|NA|bound_elsewhere_windowed (ssRNA)
RNA: GGGAGUUCUACAGUCCGACGAUCUUCAGUAUAACAUCCUCUGUGUCGUCUGGGACUAUGUCAAACCCAGUCACAGUGGCAGCUGCAAUGAGCAUGAGAAGUCCAGUAAAUGUUUCAAGUGCAGUUAACAUAACCAGCCCAAUGCAACAGAGGAUUGAGCAUCA
B12: chr7:33006061:33006162:+|3pUTR|ENSG00000122642|msi1_unk|FALSE|overlapping (ssRNA)
RNA: GGGAGUUCUACAGUCCGACGAUCGGCAUCUCAGACCACAAAUAGAGAAUUUGAUUCCUCAUUUGCCACAUAAGUCAUCUGCUUAGCUUUUCCUUUCCUUUUUUUUUUUUUUUUUUUUUCUGGAGGCAGAGUCUCCCUUUGUCGCAACAGAGGAUUGAGCAUCA
B13: chr9:132262671:132262773:-|3pUTR|ENSG00000107290|unk|total|mutant (ssRNA)
RNA: GGGAGUUCUACAGUCCGACGAUCUGUGCAUUAUUUGACAUUUCCUUUGUCAUCUGCUUUUUAAGCAAAAAAGGGUUUUGUGUCCGAAAUUCUACUUGAGCAGAUUAUAAAGAGCUUUAAAAAACAACUUUCGGUUGCCAAAAGCAACAGAGGAUUGAGCAUCA
B14: chr5:150709129:150709230:-|3pUTR|ENSG00000132912|msi1|total|mutant (ssRNA)
RNA: GGGAGUUCUACAGUCCGACGAUCCACAAAACACUUUGAUCAUAAACUUUUUUCUUCAGAAGCCAAACUAACUUGCAGAAUAACCGAGCCACUGGUUUAAUGUUUCCUCAAGACCGGUUUCCGUGUAAGCCCGUAUUCUGUGUGCAACAGAGGAUUGAGCAUCA

Molecular target: MSI1 full-length (mouse, UniProt Q61474 1-362)
Chain of UniProt Q61474 (Q61474 whole entry): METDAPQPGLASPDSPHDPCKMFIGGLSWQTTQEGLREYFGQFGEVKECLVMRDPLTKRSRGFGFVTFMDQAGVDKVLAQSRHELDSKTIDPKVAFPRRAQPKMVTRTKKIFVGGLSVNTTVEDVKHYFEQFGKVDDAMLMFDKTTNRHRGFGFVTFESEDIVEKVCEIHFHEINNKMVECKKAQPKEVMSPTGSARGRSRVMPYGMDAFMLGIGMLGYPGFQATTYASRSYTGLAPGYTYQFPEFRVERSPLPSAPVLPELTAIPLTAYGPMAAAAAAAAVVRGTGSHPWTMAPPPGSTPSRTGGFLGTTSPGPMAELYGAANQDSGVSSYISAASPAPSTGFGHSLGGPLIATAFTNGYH
Assay: nsRBNS (natural sequence RNA bind-n-seq); RBNS binding buffer (assumed for nsRBNS): 25 mM Tris pH 7.5, 150 mM KCl, 3 mM MgCl2, 0.01% Triton X-100, 500 ug/ml BSA, 20 U/ml SUPERase-In, 4 C; UNK is unkempt and MSI1 is Musashi-1; names of the RNAs are library labels; protein concentration not given here; high values mean tight binding

Binder	binding signal
B1	0.513 enrichment R
B2	2.06 enrichment R
B3	5.29 enrichment R
B4	0.649 enrichment R
B5	0.533 enrichment R
B6	1.34 enrichment R
B7	0.605 enrichment R
B8	0.596 enrichment R
B9	0.633 enrichment R
B10	0.233 enrichment R
B11	0.369 enrichment R
B12	1.89 enrichment R
B13	0.304 enrichment R
B14	0.273 enrichment R
